# Source: the supplement of paper PMC3334620
# In all, about 33,000 sequences were measured (“E-score (-0.5 to 0.5)”: median about -0.035, highest 2% from about 0.35 on). The list shows a part of the results.
# Target: T1, Pdr3 (UniProt P33200)
# T1 sequence: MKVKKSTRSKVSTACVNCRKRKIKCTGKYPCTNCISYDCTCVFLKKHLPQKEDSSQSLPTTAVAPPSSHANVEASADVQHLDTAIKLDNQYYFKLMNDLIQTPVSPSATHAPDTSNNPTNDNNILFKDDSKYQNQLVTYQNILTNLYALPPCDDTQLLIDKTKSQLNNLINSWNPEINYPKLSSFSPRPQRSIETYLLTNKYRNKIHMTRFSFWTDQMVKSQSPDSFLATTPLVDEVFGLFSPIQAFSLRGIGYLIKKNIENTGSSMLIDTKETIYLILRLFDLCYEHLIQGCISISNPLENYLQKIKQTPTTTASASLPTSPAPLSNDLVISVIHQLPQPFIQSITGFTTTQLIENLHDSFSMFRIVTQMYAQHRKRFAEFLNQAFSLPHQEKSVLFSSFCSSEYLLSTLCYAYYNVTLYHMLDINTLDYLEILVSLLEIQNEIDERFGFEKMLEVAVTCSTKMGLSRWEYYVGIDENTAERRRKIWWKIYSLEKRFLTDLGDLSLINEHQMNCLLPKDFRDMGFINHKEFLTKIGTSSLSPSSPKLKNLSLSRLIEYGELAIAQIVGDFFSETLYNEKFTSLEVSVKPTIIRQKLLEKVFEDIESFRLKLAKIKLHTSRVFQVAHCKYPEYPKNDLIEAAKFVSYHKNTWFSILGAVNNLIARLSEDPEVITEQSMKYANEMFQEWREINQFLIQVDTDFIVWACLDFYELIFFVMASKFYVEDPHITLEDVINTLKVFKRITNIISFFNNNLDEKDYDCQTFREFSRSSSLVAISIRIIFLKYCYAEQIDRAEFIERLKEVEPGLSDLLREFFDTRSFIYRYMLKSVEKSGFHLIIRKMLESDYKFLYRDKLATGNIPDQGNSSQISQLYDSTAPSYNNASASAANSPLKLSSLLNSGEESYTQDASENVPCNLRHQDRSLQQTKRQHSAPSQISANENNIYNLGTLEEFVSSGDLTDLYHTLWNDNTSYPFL
# Test: PBM E-score (8-mer binding enrichment) (E-score (-0.5 to 0.5)); higher = stronger / more preferred TF binding; most listed sequences are background and not binding sites
# Conditions: protein concentration: 200 nM; construct: GST-full length
# In short: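 Each ungapped eight-base word and its reverse complement, pooled, received an E-score from the Universal PBM Analysis Suite. Underlying scans, normalised with masliner, recorded fluorescent anti-GST bound to GST-tagged yeast transcription factors. These were applied at about 100-200 nM to universal all-10-mer Agilent arrays double-stranded by primer extension.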
row,Sequence,PBM E-score
1,GCCTATGA,-0.016
2,AGCGCGCA,0.243
3,AATCCCTC,-0.112
4,CGAGCTTC,0.152
5,CCCAAGAA,-0.0373
6,ATAACTCG,-0.0206
7,GTTATAAC,0.0825
8,ACCTTACT,0.0457
9,TAAGGCGA,-0.115
10,GATGGATA,-0.0298
11,AATGCGAA,0.00128
12,GTACGTAA,-0.296
13,AACAGAGT,-0.0201
14,GCCATAAA,-0.024
15,AATCCAAT,0.033
16,GGTAAACC,0.0178
17,GACTAGAC,-0.268
18,CAAACACG,0.0474
19,TGCGCTAA,-0.0397
20,GCCGTTCC,0.241
21,GAAACCAC,0.0451
22,GTTACGAA,-0.00813
23,ACGTGCAA,-0.0369
24,CAGCCCGC,0.00736
25,AAACAATA,0.152

row,Sequence,PBM E-score
1,AGTCTCTC,-0.219
2,GTCTCGAA,-0.136
3,ATTGGCAG,-0.115
4,TATCTTGA,-0.0828
5,CAGCAAAG,-0.0837
6,ACGCTGCC,-0.044
7,CTTGAACA,0.0296
8,CAAGAGCC,0.0508
9,AAGCCGGA,0.392
10,AACGTCGC,-0.0426
11,CACTGGGC,-0.0984
12,GCTAATCC,0.111
13,CAAGATCG,0.0955
14,CTGTGGAA,0.0233
15,CTGTAAGC,-0.127
16,GGTGCATA,-0.00982
17,TTGAGAAA,-0.207
18,GCGGACCA,0.366
19,ATGTAATA,0.0295
20,TACAAGGA,0.111
21,GGCTCCTA,-0.169
22,AAATTCTT,-0.141
23,CTTCACCC,0.252
24,TATCTGCA,-0.0881
25,ACCTCCCG,0.297

row,Sequence,PBM E-score
1,AATCCGGT,0.294
2,CAGGGGAC,-0.0718
3,CGATGGCG,0.165
4,ACCGTCCG,0.283
5,AATTTTCA,-0.0884
6,GACACTCA,-0.0894
7,CCACTCTA,-0.0753
8,AAATATTT,-0.0497
9,CTGCTGGC,-0.103
10,TAATGCGA,-0.0735
11,CTTTCACC,-0.0498
12,ATATACCG,0.306
13,CGCAGCTA,0.0739
14,AGTACACC,-0.155
15,ACTCCACT,-0.262
16,CTGCCAGA,-0.151
17,ACAGCTTG,-0.0661
18,CCCGAACC,0.257
19,CAAACCAG,-0.137
20,CCTAAGCC,-0.215
21,CACACGCA,-0.107
22,CACACCGG,0.243
23,CCGGTGCG,0.318
24,CAGTGGTC,-0.0578
25,GGTCCTGA,0.103

row,Sequence,PBM E-score
1,GGTAACAC,0.0536
2,CCTGGTAG,-0.12
3,CCTTATAC,-0.129
4,CAGTCACG,-0.0218
5,GCTGTGTA,-0.121
6,CTCTAAGC,-0.0134
7,ACAAAGAC,-0.128
8,CATAGGGA,-0.0985
9,CCCCCTCA,-0.444
10,ATGCGAGC,-0.04
11,ACTCTGCT,-0.0489
12,CCACACTC,-0.134
13,GCACGTAC,-0.0398
14,ACACTTTC,0.0765
15,ATACAAAA,0.00884
16,CATCAGTC,-0.0411
17,ACCTAGGC,0.0314
18,ACGCAGTG,-0.179
19,ACCCCAAC,-0.0354
20,ACGTGGAT,-0.182
21,CCGAATAG,0.203
22,TCCTACGA,-0.263
23,TTCCCGAA,0.273
24,AAGCTCTC,-0.008
25,AGTGGGGA,0.0488

row,Sequence,PBM E-score
1,ATATATAA,0.136
2,AAATTGAC,-0.0509
3,CCTTTTAG,-0.291
4,CCCGTATA,0.166
5,ATGTCTCA,-0.0576
6,ATATTTTG,0.0456
7,ACTGTGTA,0.0292
8,AGTTACTC,-0.0205
9,ACGCTATA,-0.211
10,GTCGCAAA,-0.0129
11,ATCCTCTC,-0.0391
12,GGGAGGCA,-0.0024
13,ACAAAGAT,-0.186
14,AGGCTGTA,-0.135
15,CGTACCCC,0.0871
16,CGTTCCGA,0.455
17,ACCCTACG,-0.106
18,AGTCATAC,-0.126
19,ACCGGGAT,0.357
20,GCACATCC,0.0416
21,CCACAACA,-0.3
22,ACATGGAA,0.113
23,ACACCGGT,0.14
24,GAGTCACA,-0.0756
25,CGACCAGC,0.0968

row,Sequence,PBM E-score
1,ACATTATC,0.0877
2,AATTCCTA,-0.211
3,CTAGGCAG,-0.159
4,ACGGTACC,0.149
5,ATGTACAA,-0.0796
6,CGCTCCTC,-0.248
7,TAACCAGA,-0.00146
8,ACTGCCAT,-0.0531
9,ACAATATA,0.145
10,CTATGCAA,-0.221
11,CTCCAGTA,-0.0529
12,TAAGTCTA,-0.213
13,GCACTGAA,-0.06
14,ATCAGCTC,-0.0405
15,ATGTAGTA,-0.0649
16,CGGCCCCC,-0.0763
17,TGTTGAAA,0.0145
18,CTTTAGGA,-0.234
19,CTAACCCA,-0.131
20,TGTGAGAA,-0.0175
21,TCCACCCA,-0.292
22,GAGAGTCA,-0.27
23,ACGGGATC,0.275
24,CAGCACGA,0.0254
25,GAACGGCA,0.256

row,Sequence,PBM E-score
1,GCCGCTAC,0.216
2,AGTATGTG,0.103
3,CACGTAAC,-0.141
4,GGGATTTA,0.104
5,AAGCTGTG,-0.203
6,ATGAGCTA,-0.0954
7,ACCATCAT,-0.187
8,GTTAAATA,-0.0823
9,AATCCTAC,-0.278
10,CATCAAGC,-0.0872
11,AGTCCAGC,-0.16
12,ATTCGGCA,0.245
13,AGTCTTAA,-0.328
14,CCATAACA,0.0144
15,ATTTCTAA,-0.0544
16,CCCAGAAC,-0.0485
17,AGCGCGAC,-0.0459
18,ATTGGGTC,0.162
19,ACCGCTCG,0.0282
20,CTAGCTAA,-0.0718
21,GTTGAGTA,-0.0945
22,CGGAGTTC,0.352
